Measured values as given in PubChem BioAssay AID463173 (ICCB-Longwood Screening Facility, Harvard Medical School, 2010).
The whole screen tested about 52,000 compounds, of which about 4,300 (8.3%) were called active. Cut-off read from the data, not from the text of the source: active = survival mostly below about 52% (no sharp cut-off); inactive = mostly above about 56%. This is one part of the list.

tested on: DeltatarO mutant; assay: growth inhibition of S. aureus wild type versus tarO mutant, primary screen, teichoic acid synthesis inhibitors, RN4220, OD600 (AID 463173); settings: OD600, 18 h, active compounds read low, screened at 18.75 µg/mL (by protocol)

Compound | survival
Cc1ccc(C)n1CCC(=O)O | inactive: 116%
COCCCNC(=O)CC(c1cc(OC)c(OC)c(OC)c1)N1Cc2ccccc2C1=O (stereo not given) | inactive: 87%
COc1ccc(NC(=O)C(Cc2ccccc2)NS(=O)(=O)c2ccc(Br)s2)cc1OC (stereo not given) | inactive: 55%
Cc1noc(/C=C/c2ccco2)c1S(=O)(=O)N1CCC(C(=O)Nc2ccc(F)cc2F)CC1 | inactive: 64%
Cc1ccc(OCC(=O)Nc2ccc3nc(SCc4ccccc4)sc3c2)cc1 | inactive: 81%
Cc1cccc(OCc2ccc(-c3nc(C#N)c(N4CCC(C(N)=O)CC4)o3)o2)c1 | inactive: 80%
CCc1cc2c(cc3c(=O)n(CCCC(=O)NCc4ccccc4Cl)nc(CC)n32)s1 | inactive: 65%
CCOC(=O)c1cccc(NC(=O)Cn2c(=O)nc(-c3ccccc3)c3ccccc32)c1 | inactive: 71%
Cc1cccc(C(=O)Nc2ccc(-c3nc4ccccc4s3)c(C)c2)c1 | inactive: 71%
CCCCn1nnnc1SCC(=O)NCc1ccccc1 | inactive: 98%
Cc1ccc(CNC(=O)C(C(C)C)N2Cc3ccccc3C2=O)cc1 (stereo not given) | inactive: 73%
CCN(c1ccc(OC)cc1)S(=O)(=O)c1c(C(=O)N2CCCCCC2)c(C)n(C)c1C | inactive: 80%
COc1ccc(N2CCN(CC(O)COc3ccccc3C(C)(C)C)CC2)cc1 (stereo not given) | active: -8%
O=C(NC1CCCCC1)c1ccc(Cn2c(SCc3cccc(F)c3)nc3cccnc32)cc1 | inactive: 81%
CN(C(=O)CSc1cn(CC(=O)N2CCCCCC2)c2ccccc12)c1ccccc1 | inactive: 72%
CCCCNc1sc(S(=O)(=O)CC)nc1S(=O)(=O)c1ccc(C)cc1 | inactive: 74%
COc1nc(Nc2ccc(C)cc2)nc(NC2CCCC2)n1 | inactive: 81%
CNS(=O)(=O)c1cn(CC(=O)Nc2ccc(F)cc2F)cc1S(=O)(=O)NC | active: 0%
Cc1ccc(N2CC(c3nnc(Cc4ccc(Cl)cc4)o3)CC2=O)cc1 (stereo not given) | inactive: 48%
CCc1ccccc1NC(=O)CSc1nnc(-c2cc(OC)c(OC)c(OC)c2)o1 | inactive: 111%
CC(=O)Nc1cc(C(=O)NCc2ccccc2)ccc1Sc1ccc(C)cc1 | inactive: 99%
Cc1cccc(N2CCN(C(=O)Cn3c(=O)c4cccn4c4ccc(F)cc43)CC2C)c1 (stereo not given) | inactive: 82%
Cn1c(=O)c2sccc2n2c(CCCC(=O)Nc3ccc(F)cc3F)nnc12 | inactive: 132%

Compound | survival
CCn1c(CN2CCN(c3cccc(Cl)c3)CC2)nc2c1c(=O)[nH]c(=O)n2C | inactive: 70%
Cc1cc2nn(-c3ccc(Cl)cc3)nc2cc1NC(=O)C(C)C | inactive: 125%
COCCCNc1ncnc2c1c(-c1ccccc1)cn2-c1ccc(C)c(Cl)c1 | inactive: 67%
COc1ccc2c(c1)c1c(c(=O)n(-c3ccccc3C)c(=O)n1Cc1ccccc1C)n2C | inactive: 83%
COc1ccc(OC)c(NC(=O)CN2C(=O)CC(c3ccco3)Sc3ccccc32)c1 (stereo not given) | inactive: 53%
O=C(COc1ccc(Cl)cc1)Nc1cc(-c2ccccc2)no1 | inactive: 76%
CCOCCCNC(=O)c1cnc2sc(N3CCCCCC3)nn2c1=O | inactive: 83%
CCOc1ccc(NC(=O)Cn2c(=O)n(CCc3ccccc3)c(=O)c3c4c(sc32)CN(C(C)=O)CC4)cc1 | inactive: 108%
O=C(CCc1nc(-c2ccccc2F)no1)Nc1cccc(C(F)(F)F)c1 | inactive: 81%
Cc1ccc(C)c(N2CCN(C(=O)c3cccc(-n4c(C)nc5cccnc54)c3)CC2)c1 | inactive: 78%
Cc1ccc(CC(=O)N(Cc2nc(-c3ccc(C)cc3)no2)C(C)C)cc1 | active: -4%
Cc1nn(-c2ccccc2)c(OC(=O)c2ccc(Br)cc2)c1S(=O)(=O)c1ccccc1 | inactive: 115%
CCOc1ccc(OCC)c(NC(=O)c2cc(C)nc3c2c(C)nn3-c2cccc(Cl)c2C)c1 | inactive: 94%
CC(=O)c1cccc(-n2c(=O)c3c4c(sc3n(Cc3ccccc3Cl)c2=O)CN(C(C)=O)CC4)c1 | inactive: 83%
Cc1ccc(C2CCN(C(=O)c3cnn(-c4ccccc4Cl)c3C3CCN(C(=O)OC(C)(C)C)CC3)C2)cc1 (stereo not given) | inactive: 67%
COc1cc(OC)c(C2C=C(C(=O)O)Nc3ncnn32)cc1OC (stereo not given) | inactive: 99%
COc1ccc(CNC(=O)c2cc3ccccn3n2)c(OC)c1 | inactive: 71%
C=CCN(CC=C)C(=S)Nc1ccc2nc(C)c(C)nc2c1 | inactive: 79%
CCc1cccc2c(=O)c(C(=O)N3CCCC3)c[nH]c12 | inactive: 59%
CCOC(=O)c1ccc2c(c1)[nH]c(=S)n2CC | inactive: 87%
Cn1nc(C(=O)N2CCN(c3ccccc3)CC2)c2c1-c1ccccc1SC2 | inactive: 80%
CCCCOc1ccc(CNC(=O)Cn2ncn3c(cc4cc(F)ccc43)c2=O)cc1 | inactive: 81%
CCCCN(CC)C(=O)Cn1c(=O)n(-c2ccc(OCC)cc2)c(=O)c2c3c(sc21)CCC3 | inactive: 78%

Compound | survival
CCn1c(=N)c(C(N)=O)cc2c(=O)n3ccccc3nc21 | inactive: 118%
O=C(CCN1C(=O)CSC1=O)Nc1ccccc1 | inactive: 114%
CC1=C(C#N)C(=O)NC(=O)/C1=C\c1ccc(-c2ccc(S(N)(=O)=O)cc2)o1 | inactive: 106%
Cc1ccc(C(=O)Nc2cccc(C(=O)OCc3cc(=O)n4c5c(sc4n3)CCCC5)c2)cc1 | inactive: 105%
Cc1ccc(NC(=O)C2CCCN(S(=O)(=O)c3cccc4cccnc34)C2)cc1Cl (stereo not given) | inactive: 72%
Cc1ccc2[nH]cc(C(c3ccccc3)c3cccs3)c2c1 (stereo not given) | active: 12%
COc1cc(OC)c(NC(=O)c2ccc3nc(C(C)C)oc3c2)cc1Cl | inactive: 76%
COc1ccccc1CNC(=O)c1cn(C)c2ccc(S(=O)(=O)N3CCC(C)CC3)cc2c1=O | inactive: 92%
O=C(COc1ccc(S(=O)(=O)NCc2ccccc2)cc1)NCc1ccco1 | inactive: 89%
CCOc1ccc(CCNC(=O)C2CCCN(c3nnc(C)c4c(C)n(-c5ccccc5)nc34)C2)cc1 (stereo not given) | inactive: 87%
NC(=O)c1c(NC(=O)c2noc3c2CCCC3)sc2c1CCCC2 | active: 40%
COc1ccccc1N1CCN(C(=O)C2CCN(S(=O)(=O)c3cccc4nonc34)CC2)CC1 | inactive: 81%
CCN(Cc1ccccc1)C(c1ccccn1)c1nnnn1C(C)(C)CC (stereo not given) | inactive: 75%
Cc1ccc(Nc2cc(C(=O)NC3CCCC3)c3ccccc3n2)cc1C | inactive: 83%
Nc1ncc(S(=O)(=O)NCc2ccccc2F)cn1 | inactive: 84%
CCOC(=O)c1c(C)n(-c2ccccc2)c2ccc(OC(=O)c3ccccc3Cl)cc12 | inactive: 54%
CC(C)COc1ccc(C(=O)NCC2OCCc3ccccc32)cc1 (stereo not given) | inactive: 51%
COc1ccc(C(=O)NCC(c2ccco2)S(=O)(=O)c2ccccc2)cc1 (stereo not given) | active: -4%
CCOC(=O)c1c(C)oc2nc(C)nc(N3CCN(c4ccc(C)cc4C)CC3)c12 | inactive: 122%
CC(=O)N1CCCc2cc(S(=O)(=O)N3CCC(C(=O)NCc4ccc(F)cc4)CC3)ccc21 | inactive: 82%
Cc1ccc(Cl)cc1N1CC(O)=C(c2nc3ccccc3c(=O)[nH]2)C1=N | inactive: 67%
COc1ccc2oc(=O)c(C(=O)NCCc3c(C)[nH]c4c(C)cccc34)cc2c1 | active: 47%
CCc1ccc2nc(N3CCCCC3)c(C#N)cc2c1 | inactive: 88%

Compound | survival
CCOc1cc2[nH]c(=O)n(CCC(=O)N3CCN(c4cccc(Cl)c4)CC3)c(=O)c2cc1OCC | inactive: 69%
COC(=O)c1cc(NC(=O)CCS(=O)(=O)c2cc(Br)cc3c2N(C(=O)C2CC2)CC3)cc(C(=O)OC)c1 | inactive: 97%
CCOC(=O)Cn1nc(C)c(NC(=O)COc2ccc(OC)cc2)c1C | inactive: 89%
Cc1ccccc1C(=O)Nc1ccc(NC(=O)c2cccs2)cc1 | inactive: 59%
CCOc1ccc(-c2csc3ncnc(Nc4cccc(O)c4)c23)cc1 | inactive: 74%
CCn1c2ccccc2c2cc(NC(=O)COc3cc(C)c(Cl)c(C)c3)ccc21 | active: 50%
COc1ccc(-n2nc(C(=O)O)cc2-c2ccccc2)cc1 | inactive: 61%
CC(=O)c1ccc(NC(=O)c2cccc(NC(=O)N3CCSc4ncccc43)c2)cc1 | inactive: 79%
CCOCCCNC(=O)c1c(NC(=O)Cc2coc3c(C)c(C)ccc23)sc2c1CCC2 | inactive: 60%
Cc1cc(C)cc(N(C)S(=O)(=O)c2nnc(NC(=O)COc3ccc(C)c(C)c3)s2)c1 | active: 30%
COC(=O)c1cc(C)nc2c1c(=O)nc(SCc1cc(C)ccc1C)n2C1CC1 | inactive: 67%
COc1cc(OC)c(NC(=O)COc2ccccc2-c2nnc(-c3ccccc3)o2)cc1Cl | inactive: 95%
CCN1CCOC(=O)C1CC(=O)Nc1ccccc1C(F)(F)F (stereo not given) | inactive: 71%
Cc1cccc(NC(=O)C2CCC(CNS(=O)(=O)c3ccc4c(c3)CCCC(=O)N4)CC2)c1C (stereo not given) | inactive: 73%
CCCN(C(=O)C1CCN(S(=O)(=O)c2c(C)noc2/C=C/c2ccc(C)cc2)CC1)c1ccccc1F | inactive: 80%
CC(C)(C)c1ccc(-c2nnc(-c3ccc(N4CCOCC4)cc3)o2)cc1 | inactive: 107%
NC(=O)CN1C(=O)Cc2ccccc21 | inactive: 74%
O=C(CCc1ccccc1)N/N=C/c1cccc(O)c1 | inactive: 119%
CC(=O)N1CCc2c(sc3c2c(=O)n(-c2ccccc2Cl)c(=O)n3C)C1 | inactive: 88%
O=C(CSc1nnc(-c2ccco2)c(-c2ccco2)n1)N1c2ccccc2Sc2ccc(Cl)cc21 | inactive: 114%
CCn1c(C)cs/c1=N\C(=S)Nc1ccccc1C | inactive: 70%
